# Test results reported in the supplement of paper PMC8728848.
# This is one part of the list.
# B1: PX9937B-bvu-524-33-524 (Bacteroides vulgatus) (protein)
# chain: GTAYWKNPDQFTAFNTGLHALLREKSYNFFLLGEPRADIYGDNPIGGEASQGMERLPFNTINKENVGISNYGDMYKIINQINQMIAKTTETTILTEATQNYYLGEAYGMRAYLYFHLLRSWGDVVLYLDYTEGQNLDLSNITKGVSPATEVMEQIKKDIQASENAFGSDYSFKLGRHFWSAAATQMLKGEAYLWSGRQMNGGNSDYTIAKNAFENVKKADVGLVTSSFKDIFSFENKKNKEMIFTIHNGKDEYEMWGGYYRMRLIPAQDKMVKIYCDENGNSFVGTPDAQLNGLTQLQVRREFYFKGFRNNDTRWTTSLKAVYKKDAQGVVSYFGPITYKFQGTMLEGGSTRSFLDDFPIYRYADCLLQLAMAKVLLGEDPTEEINAVRERAYGSKYFNEHKAEIAYPNDNDPEFYTDNKWMKPDNAGALEAILKERLREFMFEGKRWYDIRLLGWDYVHQYSSAEQSRLLWPIDAGTLTNNSALKQTPGYE
# Key:
# Assay in all cases: glycan array binding signal (z-score within array); higher = stronger binding
# Conditions in all cases: glycan notation: IUPAC condensed, linker removed
# [1] = biological target: Fuc(a1-2)[Gal(a1-3)]Gal(b1-4)GlcNAc(b1-2)Man(a1-3)[Fuc(a1-2)[Gal(a1-3)]Gal(b1-4)GlcNAc(b1-2)Man(a1-6)]Man(b1-4)GlcNAc(b1-4)[Fuc(a1-6)]GlcNAc
# How it was run: (§1)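 Columns mapping to the same glycan were averaged after glycan names were converted to IUPAC-condensed notation. The data come from 3228 arrays in the Consortium for Functional Glycomics database, limited to those with an available protein sequence. Binding is reported as a within-array Z-score averaged across arrays of one protein sequence and across linkers.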
# [2] = biological target: Fuc(a1-2)[Gal(a1-3)]Gal(b1-4)GlcNAc(b1-3)GalNAc
# How it was run: as §1
# [3] = biological target: Fuc(a1-2)[Gal(a1-3)]Gal(b1-4)GlcNAc(b1-3)[Fuc(a1-2)[Gal(a1-3)]Gal(b1-4)GlcNAc(b1-6)]GalNAc
# How it was run: as §1
# [4] = biological target: Fuc(a1-2)[Gal(a1-3)]Gal(b1-4)GlcNAc(b1-6)GalNAc
# How it was run: as §1
# [5] = biological target: Fuc(a1-2)[Gal(a1-3)]Gal(b1-4)[Fuc(a1-3)]Glc
# How it was run: as §1
# [6] = biological target: Fuc(a1-2)[Gal(a1-3)]Gal(b1-4)[Fuc(a1-3)]GlcNAc
# How it was run: as §1
# [7] = biological target: Fuc(a1-2)[Gal(a1-3)]Gal(b1-4)[Fuc(a1-3)]GlcNAc(b1-3)GalNAc
# How it was run: as §1
# [8] = biological target: Fuc(a1-2)[Gal(a1-4)]Gal(b1-4)GlcNAc
# How it was run: as §1
# [9] = biological target: Fuc(a1-2)[GalNAc(a1-3)]Gal
# How it was run: as §1
# [10] = biological target: Fuc(a1-2)[GalNAc(a1-3)]Gal(b1-3)GalNAc(a1-3)[Fuc(a1-2)]Gal(b1-4)GlcNAc
# How it was run: as §1
# [11] = biological target: Fuc(a1-2)[GalNAc(a1-3)]Gal(b1-3)GalNAc(b1-3)Gal(a1-4)Gal(b1-4)Glc
# How it was run: as §1
# [12] = biological target: Fuc(a1-2)[GalNAc(a1-3)]Gal(b1-3)GlcNAc
# How it was run: as §1
# [13] = biological target: Fuc(a1-2)[GalNAc(a1-3)]Gal(b1-3)GlcNAc(b1-2)Man(a1-3)[Fuc(a1-2)[GalNAc(a1-3)]Gal(b1-3)GlcNAc(b1-2)Man(a1-6)]Man(b1-4)GlcNAc(b1-4)GlcNAc
# How it was run: as §1
# [14] = biological target: Fuc(a1-2)[GalNAc(a1-3)]Gal(b1-3)GlcNAc(b1-2)Man(a1-3)[Fuc(a1-2)[GalNAc(a1-3)]Gal(b1-3)GlcNAc(b1-2)Man(a1-6)]Man(b1-4)GlcNAc(b1-4)[Fuc(a1-6)]GlcNAc
# How it was run: as §1
# [15] = biological target: Fuc(a1-2)[GalNAc(a1-3)]Gal(b1-3)GlcNAc(b1-3)GalNAc
# How it was run: as §1
# [16] = biological target: Fuc(a1-2)[GalNAc(a1-3)]Gal(b1-3)GlcNAc(b1-6)GalNAc
# How it was run: as §1
# [17] = biological target: Fuc(a1-2)[GalNAc(a1-3)]Gal(b1-4)Glc
# How it was run: as §1
# [18] = biological target: Fuc(a1-2)[GalNAc(a1-3)]Gal(b1-4)GlcNAc
# How it was run: as §1
# [19] = biological target: Fuc(a1-2)[GalNAc(a1-3)]Gal(b1-4)GlcNAc(b1-2)Man
# How it was run: as §1
# [20] = biological target: Fuc(a1-2)[GalNAc(a1-3)]Gal(b1-4)GlcNAc(b1-2)Man(a1-3)[Fuc(a1-2)[GalNAc(a1-3)]Gal(b1-4)GlcNAc(b1-2)Man(a1-6)]Man(b1-4)GlcNAc(b1-4)GlcNAc
# How it was run: as §1
# [21] = biological target: Fuc(a1-2)[GalNAc(a1-3)]Gal(b1-4)GlcNAc(b1-2)Man(a1-3)[Fuc(a1-2)[GalNAc(a1-3)]Gal(b1-4)GlcNAc(b1-2)Man(a1-6)]Man(b1-4)GlcNAc(b1-4)[Fuc(a1-6)]GlcNAc
# How it was run: as §1
# [22] = biological target: Fuc(a1-2)[GalNAc(a1-3)]Gal(b1-4)GlcNAc(b1-3)Gal(b1-4)GlcNAc
# How it was run: as §1
# [23] = biological target: Fuc(a1-2)[GalNAc(a1-3)]Gal(b1-4)GlcNAc(b1-3)Gal(b1-4)GlcNAc(b1-3)Gal(b1-4)GlcNAc
# How it was run: as §1
# [24] = biological target: Fuc(a1-2)[GalNAc(a1-3)]Gal(b1-4)GlcNAc(b1-3)GalNAc
# How it was run: as §1
# [25] = biological target: Fuc(a1-2)[GalNAc(a1-3)]Gal(b1-4)GlcNAc(b1-3)[Fuc(a1-2)[GalNAc(a1-3)]Gal(b1-4)GlcNAc(b1-6)]GalNAc
# How it was run: as §1
# [26] = biological target: Fuc(a1-2)[GalNAc(a1-3)]Gal(b1-4)GlcNAc(b1-6)GalNAc
# How it was run: as §1
# [27] = biological target: Fuc(a1-2)[GalNAc(a1-3)]Gal(b1-4)[Fuc(a1-3)]GlcNAc
# How it was run: as §1
# [28] = biological target: Fuc(a1-2)[GalNAc(a1-3)]Gal(b1-4)[Fuc(a1-3)]GlcNAc(b1-3)GalNAc
# How it was run: as §1
# [29] = biological target: Fuc(a1-2)[GalNAc(a1-4)]Gal(b1-4)GlcNAc
# How it was run: as §1
# [30] = biological target: Fuc(a1-2)[GalNAc(b1-3)]Gal
# How it was run: as §1
binder,measurement,setting,value
B1,glycan array binding signal (z-score),[1],0.001
same,glycan array binding signal (z-score),[2],-0.187
same,glycan array binding signal (z-score),[3],-0.34
same,glycan array binding signal (z-score),[4],-0.293
same,glycan array binding signal (z-score),[5],-0.358
same,glycan array binding signal (z-score),[6],-0.017
same,glycan array binding signal (z-score),[7],-0.416
same,glycan array binding signal (z-score),[8],-0.238
same,glycan array binding signal (z-score),[9],-0.303
same,glycan array binding signal (z-score),[10],-0.066
same,glycan array binding signal (z-score),[11],-0.146
same,glycan array binding signal (z-score),[12],-0.431
same,glycan array binding signal (z-score),[13],-0.315
same,glycan array binding signal (z-score),[14],-0.469
same,glycan array binding signal (z-score),[15],-0.159
same,glycan array binding signal (z-score),[16],-0.168
same,glycan array binding signal (z-score),[17],-0.288
same,glycan array binding signal (z-score),[18],-0.354
same,glycan array binding signal (z-score),[19],-0.41
same,glycan array binding signal (z-score),[20],-0.183
same,glycan array binding signal (z-score),[21],-0.269
same,glycan array binding signal (z-score),[22],-0.333
same,glycan array binding signal (z-score),[23],1.11
same,glycan array binding signal (z-score),[24],-0.348
same,glycan array binding signal (z-score),[25],-0.373
same,glycan array binding signal (z-score),[26],-0.359
same,glycan array binding signal (z-score),[27],-0.135
same,glycan array binding signal (z-score),[28],-0.28
same,glycan array binding signal (z-score),[29],-0.018
same,glycan array binding signal (z-score),[30],-0.008
